The other results are listed elsewhere or left out. Many values rest on one well or one pass, so single values are uncertain.
system: MZ2-MEL; experiment: cell count relative to DMSO control; melanoma cells; higher = more viable cells; conditions: library dose: low library concentration; 72 h
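Also: cell number obtained by counting DAPI-stained nuclei in high-throughput microscope images with image analysis software, screen run in 1,536-well plates.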

SMILES | cell count [%]
C[C@]12O[C@H](C[C@]1(O)CO)n1c3ccccc3c3c4c(c5c6ccccc6n2c5c31)CNC4=O [Lestaurtinib] + Clc1ccc(Nc2nnc(Cc3ccncc3)c3ccccc23)cc1 [vatalanib] (first compound 0.004 µM, partner dose 2 µM) | 98.2
C[C@]12O[C@H](C[C@]1(O)CO)n1c3ccccc3c3c4c(c5c6ccccc6n2c5c31)CNC4=O [Lestaurtinib] + Cc1cc(Nc2cc(N3CCN(C)CC3)nc(/C=C/c3ccccc3)n2)n[nH]1 [ENMD2076] (first compound 0.004 µM, partner dose 0.04 µM) | 107
C[C@]12O[C@H](C[C@]1(O)CO)n1c3ccccc3c3c4c(c5c6ccccc6n2c5c31)CNC4=O [Lestaurtinib] + C#Cc1cccc(Nc2ncnc3cc(OCCOC)c(OCCOC)cc23)c1 [erlotinib] (first compound 0.004 µM, partner dose 0.8 µM) | 86.6
C[C@]12O[C@H](C[C@]1(O)CO)n1c3ccccc3c3c4c(c5c6ccccc6n2c5c31)CNC4=O [Lestaurtinib] + Nc1ncn([C@H]2C[C@H](O)[C@@H](CO)O2)c(=O)n1 [decitabine] (first compound 0.004 µM, partner dose 0.1 µM) | 82.5
C[C@]12O[C@H](C[C@]1(O)CO)n1c3ccccc3c3c4c(c5c6ccccc6n2c5c31)CNC4=O [Lestaurtinib] + COCC[n+]1c2c(n(Cc3cnccn3)c1C)C(=O)c1ccccc1C2=O [YM155] (first compound 0.004 µM, partner dose 0.0004 µM) | 70
C[As](C)SC[C@H](NC(=O)CC[C@H](N)C(=O)O)C(=O)NCC(=O)O [Darinaparsin] + COC(=O)c1sccc1S(=O)(=O)Nc1ccc(Nc2ccccc2)cc1OC [GSK0660] (first compound 0.4 µM, partner dose 1 µM) | 97.6
C[C@]12O[C@H](C[C@]1(O)CO)n1c3ccccc3c3c4c(c5c6ccccc6n2c5c31)CNC4=O [Lestaurtinib] + C[C@]1(c2nc3c(C(N)=O)cccc3[nH]2)CCCN1 [Veliparib] (first compound 0.004 µM, partner dose 1.4 µM) | 97.7

system: MeWo; experiment: as above; conditions: library dose: low library concentration; 72 h

SMILES | cell count [%]
C[C@]12O[C@H](C[C@]1(O)CO)n1c3ccccc3c3c4c(c5c6ccccc6n2c5c31)CNC4=O [Lestaurtinib] + OCc1c[nH]c2ccccc12 [Indole-3-carbinol] (first compound 0.004 µM, partner dose 0.8 µM) | 96.9
C[C@]12O[C@H](C[C@]1(O)CO)n1c3ccccc3c3c4c(c5c6ccccc6n2c5c31)CNC4=O [Lestaurtinib] + CO[C@H]1C[C@@H]2CC[C@@H](C)[C@@](O)(O2)C(=O)C(=O)N2CCCC[C@H]2C(=O)O[C@H]([C@H](C)C[C@@H]2CC[C@@H](OCCO)[C@H](OC)C2)CC(=O)[C@H](C)/C=C(\C)[C@@H](O)[C@@H](OC)C(=O)[C@H](C)C[C@H](C)/C=C/C=C/C=C/1C [everolimus] (first compound 0.004 µM, partner dose 0.02 µM) | 59
C[C@]12O[C@H](C[C@]1(O)CO)n1c3ccccc3c3c4c(c5c6ccccc6n2c5c31)CNC4=O [Lestaurtinib] + Cn1c(=O)n(-c2ccc(C(C)(C)C#N)cc2)c2c3cc(-c4cnc5ccccc5c4)ccc3ncc21 [NVP-BEZ235] (first compound 0.004 µM, partner dose 0.004 µM) | 80.4
C[C@]12O[C@H](C[C@]1(O)CO)n1c3ccccc3c3c4c(c5c6ccccc6n2c5c31)CNC4=O [Lestaurtinib] + Nc1ccn([C@@H]2O[C@H](CO)[C@@H](O)C2(F)F)c(=O)n1 [gemcitabine] (first compound 0.004 µM, partner dose 0.0004 µM) | 83.3
Cn1cc(C2=C(c3cn(C4CCN(Cc5ccccn5)CC4)c4ccccc34)C(=O)NC2=O)c2ccccc21 [Enzastaurin] + CO[C@H]1C[C@@H]2CC[C@@H](C)[C@@](O)(O2)C(=O)C(=O)N2CCCC[C@H]2C(=O)O[C@H]([C@H](C)C[C@@H]2CC[C@@H](OCCO)[C@H](OC)C2)CC(=O)[C@H](C)/C=C(\C)[C@@H](O)[C@@H](OC)C(=O)[C@H](C)C[C@H](C)/C=C/C=C/C=C/1C [everolimus] (first compound 0.8 µM, partner dose 0.02 µM) | 92.4
C[C@]12O[C@H](C[C@]1(O)CO)n1c3ccccc3c3c4c(c5c6ccccc6n2c5c31)CNC4=O [Lestaurtinib] + Nc1cccc2c1CN(C1CCC(=O)NC1=O)C2=O [lenalidomide] (first compound 0.004 µM, partner dose 1 µM) | 86.3
C[C@]12O[C@H](C[C@]1(O)CO)n1c3ccccc3c3c4c(c5c6ccccc6n2c5c31)CNC4=O [Lestaurtinib] + CN(c1ncccc1CNc1nc(Nc2ccc3c(c2)CC(=O)N3)ncc1C(F)(F)F)S(C)(=O)=O [PF562271] (first compound 0.004 µM, partner dose 0.08 µM) | 95.2
C[C@]12O[C@H](C[C@]1(O)CO)n1c3ccccc3c3c4c(c5c6ccccc6n2c5c31)CNC4=O [Lestaurtinib] + CC(=O)O[C@@]12CO[C@@H]1C[C@H](O)[C@@]1(C)C(=O)[C@H](O)C3=C(C)[C@@H](OC(=O)[C@H](O)[C@@H](NC(=O)OC(C)(C)C)c4ccccc4)C[C@@](O)([C@@H](OC(=O)c4ccccc4)[C@H]21)C3(C)C [Docetaxel] (first compound 0.004 µM, partner dose 0.0001 µM) | 56.9
C[As](C)SC[C@H](NC(=O)CC[C@H](N)C(=O)O)C(=O)NCC(=O)O [Darinaparsin] + O=C(Nc1ccccc1)c1cc([N+](=O)[O-])ccc1Cl [GW9662] (first compound 0.4 µM, partner dose 2 µM) | 94.7
C[As](C)SC[C@H](NC(=O)CC[C@H](N)C(=O)O)C(=O)NCC(=O)O [Darinaparsin] + Cc1cc(SCc2sc(-c3ccc(C(F)(F)F)c(F)c3)nc2C)ccc1OCC(=O)O [GW0742] (first compound 0.4 µM, partner dose 2 µM) | 92.2
C[C@]12O[C@H](C[C@]1(O)CO)n1c3ccccc3c3c4c(c5c6ccccc6n2c5c31)CNC4=O [Lestaurtinib] + CCCS(=O)(=O)Nc1ccc(F)c(C(=O)c2c[nH]c3ncc(Cl)cc23)c1F [PLX4720] (first compound 0.004 µM, partner dose 0.08 µM) | 94.9
C[C@]12O[C@H](C[C@]1(O)CO)n1c3ccccc3c3c4c(c5c6ccccc6n2c5c31)CNC4=O [Lestaurtinib] + O=C(O)[C@@H]1[O][Sb](=[O])([O][Sb]2(=[O])[O][C@H]([C@H](O)CO)[C@H](O)[C@H](C(=O)O)[O]2)[O][C@H]([C@H](O)CO)[C@@H]1O [stibogluconate] (first compound 0.004 µM, partner dose 2 µM) | 104
C[C@]12O[C@H](C[C@]1(O)CO)n1c3ccccc3c3c4c(c5c6ccccc6n2c5c31)CNC4=O [Lestaurtinib] + O=C(O)c1ccc2c(c1)nc(Nc1cccc(Cl)c1)c1ccncc12 [CX4945] (first compound 0.004 µM, partner dose 0.4 µM) | 93.7
C[As](C)SC[C@H](NC(=O)CC[C@H](N)C(=O)O)C(=O)NCC(=O)O [Darinaparsin] + O=C1NC(=O)/C(=C/c2ccc(-c3ccc(F)cc3O)o2)S1 [AS252424] (first compound 0.4 µM, partner dose 1 µM) | 114
C[C@]12O[C@H](C[C@]1(O)CO)n1c3ccccc3c3c4c(c5c6ccccc6n2c5c31)CNC4=O [Lestaurtinib] + CC(C)C[C@H](NC(=O)[C@H](Cc1ccccc1)NC(=O)c1cnccn1)B(O)O [Bortezomib] (first compound 0.004 µM, partner dose 0.001 µM) | 88.6
C[C@]12O[C@H](C[C@]1(O)CO)n1c3ccccc3c3c4c(c5c6ccccc6n2c5c31)CNC4=O [Lestaurtinib] + N.N.[Cl][Pt][Cl] [cisplatin] (first compound 0.004 µM, partner dose 1.6 µM) | 88.6
C[C@]12O[C@H](C[C@]1(O)CO)n1c3ccccc3c3c4c(c5c6ccccc6n2c5c31)CNC4=O [Lestaurtinib] + NC1(c2ccc(-c3nc4ccn5c(=O)[nH]nc5c4cc3-c3ccccc3)cc2)CCC1 [MK2206] (first compound 0.004 µM, partner dose 0.4 µM) | 57.8
C[C@]12O[C@H](C[C@]1(O)CO)n1c3ccccc3c3c4c(c5c6ccccc6n2c5c31)CNC4=O [Lestaurtinib] + C[C@]1(O)C[C@@H](c2nc(-c3ccc4ccc(-c5ccccc5)nc4c3)c3c(N)nccn32)C1 [OSI906] (first compound 0.004 µM, partner dose 0.4 µM) | 90
C[C@]12O[C@H](C[C@]1(O)CO)n1c3ccccc3c3c4c(c5c6ccccc6n2c5c31)CNC4=O [Lestaurtinib] + C=C(c1ccc(C(=O)O)cc1)c1cc2c(cc1C)C(C)(C)CCC2(C)C [Bexarotene] (first compound 0.004 µM, partner dose 2 µM) | 83.6
